The values that follow come from ChEMBL document CHEMBL4888484, “Replenishing the malaria drug discovery pipeline: Screening and hit evaluation of the MMV Hit Generation Library 1 (HGL1) against asexual blood stage Plasmodium falciparum ,using a nano luciferase reporter read-out” (2022).

Out of some 150,000 compounds screened, about 540 (0.36%) showed an effect of 50% or more. Some of the results follow.

The subject of the experiment is Plasmodium falciparum. The experiment can be described thus: Primary screen in NF54 nanoGlo assay, in single point, at 2uM, 72h; a lower Z score goes with more inhibition. It counts as functional, Erythrocyte. The following applies: timepoint 72 hour.
As to `COc1ncccc1C(=O)N1CCN(CC(C)C)[C@@H]2CS(=O)(=O)C[C@@H]21`, the “% Inhibition” value is on record as -18% and the Z score amounted to 2.35.
Taken in the same sequence, the figures for `Cc1cc(NC(=O)[C@H]2CC(=O)N(c3cc(F)cc(F)c3)C2)ccc1Oc1cccnc1` were -5% and 0.6.
The corresponding values for `C[C@@H](N)C(=O)N(CCc1cccc(F)c1)C1CC1` are 7% and -1.06.
The corresponding values for `CO[C@H]1CCCOC12CCN(C(=O)CCCc1cn[nH]c1)CC2` are -3% and 0.5.
As to `COCCCNC(=O)[C@H](C)n1ccc(C(F)(F)F)cc1=O`, the “% Inhibition” value is on record as -4% and the Z score is on record as 0.57.
As to `Cc1cnn(CCNc2ncnc3[nH]ccc23)c1`, the “% Inhibition” value was 2% and the Z score is -0.33.
Regarding `COc1ccc(CCNC(=O)N2CCN(c3nccs3)CC2)cc1OC`, the “% Inhibition” value is listed as 2% and the Z score is recorded as -0.34.
Taken in the same sequence, the figures for `O=C(NC1CCN(c2cnccn2)CC1)c1cc(Cl)c[nH]1` were -11% and 1.4.
The corresponding values for `CCCn1nc2c(c(C(F)F)cc(=O)n2CCC(=O)Nc2ncnc3c2cnn3C)c1C` are 25% and -2.87.
The corresponding values for `COc1ccc(-n2nc(C#N)c(N3CCN(CCO)CC3)n2)cc1` are 13% and -1.6.
For `O=C(Cn1nc(-c2ccco2)n(C2CC2)c1=O)N1CCc2ccccc21`, the “% Inhibition” value is listed as -11% and the Z score is listed as 1.25.
The corresponding values for `C[C@@](CO)(NC(=O)NCCc1ccc2c(c1)CCO2)C1CC1` are -7% and 0.57.
With `Cc1c([C@@H]2CC(=O)Nc3c2c(=O)[nH]n3C2CCCC2)cnn1C`, the “% Inhibition” value was 9% and the Z score is -1.47.
As for `CCOc1c(Cl)cccc1CC(=O)NCc1cc(C)no1`, the “% Inhibition” value is listed as -1% and the Z score was 0.23.
Taken in the same sequence, the figures for `CC(C)c1nn(C)c(Cl)c1CNc1cccc(F)c1F` were -4% and 0.6.
The corresponding values for `COCCc1nc(C2(Cn3ccnc3)CC2)n(Cc2cccc(Cl)c2)n1` are -8% and 1.69.
The corresponding values for `Cc1cc(Br)cn(Cc2nnc(C3CC3)n2C)c1=O` are -13% and 2.5.
With `Cc1c(O)c2c(=O)n(C)c(=O)n(C)c2[nH]c1=O`, the “% Inhibition” value is given as -15% and the Z score is 1.89.
The corresponding values for `Cc1cc(F)ccc1OCc1noc(-c2cccc3ccccc23)n1` are 3% and -0.5.
Take `Cc1ccc(NC(=O)C[C@H]2Cc3c(n(Cc4ccccc4)c(=O)[nH]c3=O)NC2=O)cc1C`: the “% Inhibition” value was determined as 30% and the Z score is on record as -3.4.
Taken in the same sequence, the figures for `COc1ccc(NC(=O)c2nnn3c2CO[C@H](c2ccccc2)C3)cc1` were -9% and 1.03.
In the case of `O=C([C@H](NCc1ccccc1CN1CCOCC1)c1ccccc1)N1CCCC1`, the “% Inhibition” value is recorded as -6% and the Z score was 0.74.
For the compound `CCC(=O)N1CCc2ccc(OCc3nc(C(=O)NCCN(C)C)co3)cc2[C@@H]1c1cccc(C)c1`, the “% Inhibition” value is -8% and the Z score is recorded as 0.84.
Taken in the same sequence, the figures for `O=C(C1C2CCCC21)N1CCOCC12CCCC2` (centres undefined) were -1% and 0.12.
The corresponding values for `CNc1cc(-c2cccc(C(=O)N3C[C@@H](C)O[C@@H](C)C3)c2)nc(N)n1` are -1% and 0.16.
The corresponding values for `Cc1nn(C(C)C)c(C)c1CNC(=O)N(C)C[C@H]1COCCO1` are -7% and 1.13.
Turning to `N/C(CC(=O)Nc1ccccc1F)=N\O`, the “% Inhibition” value is -5% and the Z score is on record as 0.6.
The corresponding values for `CN(Cc1nnc2c(=O)n(C)ccn12)c1ccnc(C(C)(C)C)n1` are 13% and -1.51.
As to `CCC(CC)CN1C[C@]23C=C[C@H](O2)C(C(=O)N2CCNC(=O)C2)C3C1=O` (some centres undefined), the “% Inhibition” value was -20% and the Z score turned out to be 2.6.
Taken in the same sequence, the figures for `CNC(=O)c1noc(CN(C)CC2(C)COC2)n1` were 1% and -0.11.
The corresponding values for `CCCOCCCNC(=O)c1cncn1-c1cccc(-c2ccc(OC)c(OC)c2)c1` are -9% and 0.94.
The corresponding values for `COc1ccc(-c2nn(-c3ccccc3)cc2CN2CCO[C@@H](C)C2)cc1` are -18% and 3.35.
Take `COCCC1(c2noc(CCc3cncc(C)c3)n2)CCC1`: the “% Inhibition” value is listed as -9% and the Z score came to 1.16.
The corresponding values for `CCc1ccc(CNC(=O)c2c(C)oc3nc(C)nc(N4CCCC4)c23)cc1` are -6% and 1.05.
Taken in the same sequence, the figures for `CN1C[C@]2(CCOC2)N(C2CCN(C(=O)c3ccc(F)cc3)CC2)C1=O` were -12% and 1.66.
Taken in the same sequence, the figures for `Cc1ccccc1CC1(N[C@@H](C)CNS(=O)(=O)C2CC2)CC1` were -17% and 1.86.
In the case of `CO[C@H]1[C@H](NC(=O)C(C)C)c2ccccc2C12CCN(CC(C)C)CC2`, the “% Inhibition” value was determined as 2% and the Z score is given as -0.36.
The corresponding values for `CN(C(=O)NCc1cscn1)C1CCCCCC1` are -4% and 0.45.
The corresponding values for `CCc1nnc(CNc2ccc(F)c(S(=O)(=O)NC)c2)s1` are -2% and 0.19.
`CCOC1CC(CCNC(=O)N2CCO[C@H]3CCC[C@H]32)C1` (some centres undefined): the “% Inhibition” value came out at 4% and the Z score is reported as -0.51.
Taken in the same sequence, the figures for `O=C1CCC(c2ccccc2)(c2ccccc2)CN1C[C@@H]1CCCN1` were -5% and 0.64.
The corresponding values for `CN1C[C@@H](Nc2nc3ccccc3o2)CCC1=O` are -17% and 1.98.

One may read the % Inhibition as the relative decrease from the control value, in per cent.
